# Results as given in PubChem BioAssay AID485294 (National Center for Advancing Translational Sciences (NCATS), 2010).
# Among all 370,000 compounds or so, about 150 (0.041%) were called active. This list was built around the results that the source calls inconclusive (neither active nor inactive); the mix of calls is not that of the screen. The call rests on the fitted dose curve; in most records, active means well fitted inhibition curve with a large enough effect; inconclusive means small, poorly fitted or top-dose-only effect; inactive means flat fitted curve, though single readings scatter. No potency is given beside an inconclusive call; the fits are too rough.
# Target: Beta-lactamase (Escherichia coli (strain K12)) (UniProt P00811)
# Test: qHTS Inhibitors of AmpC Beta-Lactamase (assay with detergent); further: nearly all actives have a fitted effect of over 25% in size
# Settings: AmpC hydrolysis of nitrocefin, absorbance 480 nm, 0.01% Triton; series mostly up to 114 µM
# Summary of the method: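 AmpC (5.3 nM in the dispensed reagent) in 20 mM phosphate pH 7.0 with 0.01% (detergent screen) or 0.0001% Triton X-100 was preincubated with compounds for 15 min at room temperature. Nitrocefin was then added from an 800 uM solution, and hydrolysis was followed at 480 nm.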
# Potency means the concentration at half of the fitted maximal effect; tags describe the fitted curve by direction and shape.
# UniProt P00811, sequence (P00811 whole entry, looked up): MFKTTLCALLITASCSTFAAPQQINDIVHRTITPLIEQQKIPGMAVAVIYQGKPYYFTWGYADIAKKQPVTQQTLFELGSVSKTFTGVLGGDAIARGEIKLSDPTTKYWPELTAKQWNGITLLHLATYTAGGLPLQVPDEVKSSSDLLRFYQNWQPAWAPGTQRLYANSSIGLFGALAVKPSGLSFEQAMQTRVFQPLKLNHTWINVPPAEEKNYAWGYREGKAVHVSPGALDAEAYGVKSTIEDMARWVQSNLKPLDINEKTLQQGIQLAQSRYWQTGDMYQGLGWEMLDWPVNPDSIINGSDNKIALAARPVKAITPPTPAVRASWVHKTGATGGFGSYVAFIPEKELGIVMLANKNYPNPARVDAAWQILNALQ
row,SMILES,Potency
1,N#Cc1ccccc1NC1=CC(=O)CCC1,"inconclusive [inhibitor, partial curve, poor fit]"
2,CCC(=O)n1nc(-c2ccc(Cl)cc2)nc1NCc1ccccc1,"inconclusive [inhibitor, partial curve, poor fit]"
3,COC(=O)c1cc(CNC(=O)c2ccc(S(=O)(=O)N(C)c3ccccc3)cc2)ccc1OC,inactive
4,Cc1ccccc1Nc1nnc(SCC2CCCCO2)s1 (stereo not given),inactive
5,Cc1ccc(S(=O)(=O)C2(C(=O)Nc3cccnc3)CC2)cc1,"inconclusive [inhibitor, full curve, poor fit]"
6,CCc1cccc(NC(=O)C(CC)n2nc(C)c3sc4ccccc4c3c2=O)c1 (stereo not given),"inconclusive [inhibitor, single point]"
7,COc1ccc(OC)c(NC(=O)Cc2coc3ccc(C)cc23)c1,"inconclusive [inhibitor, partial curve, poor fit]"
8,CCOC(=O)c1c(CN(CC)CC)n(C)c2cc(Br)c(O)cc12,inactive
9,COc1ccccc1S(=O)(=O)N1CCC(C(=O)O)(c2ccccc2)CC1,"inconclusive [inhibitor, partial curve, poor fit]"
10,CCOC(=O)N1CCN(C(=O)CNC(=O)Cc2ccc(Cl)cc2)CC1,"inconclusive [inhibitor, partial curve]"
11,O=C1c2cccc(O)c2C(=O)c2c(O)cccc21,inactive
12,O=c1cc(O)c2sc3nc(-c4ccccc4)cc(C(F)(F)F)c3c2[nH]1,"inconclusive [inhibitor, partial curve]"
13,CC(=O)c1ccc(CCCC(=O)O)cc1,"inconclusive [inhibitor, full curve, poor fit]"
14,c1ccc(Oc2cccc(OCCCCN3CCCC3)c2)cc1,inactive
15,O=C(NCCCl)C1Cc2c(ccc3ccccc23)O1 (stereo not given),inactive
16,Cc1cc(C)c2ccc(C(=O)O)nc2c1O,"inconclusive [inhibitor, full curve, poor fit]"
17,Cc1ccc(-n2[nH]c(C)c(C=Nc3ccc(C)cn3)c2=O)cc1,"inconclusive [inhibitor, full curve, poor fit]"
18,Cc1ccccc1OCc1csc(N)n1,inactive
19,Cc1ccc(C(=O)NN2C(=O)/C(=C/c3cccn3C)SC2=S)cc1,"inconclusive [inhibitor, full curve, poor fit]"
20,COc1ccc(C(=O)CCC(=O)Nc2cc(C)ccc2C)cc1,inactive
21,COn1c(=O)c(=O)n(O)c2ccccc21,inactive
22,CN1CCc2nc3sc(C#N)c(N)c3c(-c3cccs3)c2C1,inactive
23,COC(=O)Cc1[nH]nc2c1C(c1ccc(O)c(OC)c1)C(C#N)=C(N)O2 (stereo not given),"inconclusive [inhibitor, full curve]"

row,SMILES,Potency
1,Cc1ccc2[nH]c3c(=O)n(CC(=O)N4CCCC(C)C4)ncc3c2c1 (stereo not given),inactive
2,CCCCNc1nc2ccccc2n1CC(=O)N1CCc2ccccc2C1,"inconclusive [inhibitor, full curve, poor fit]"
3,CCOc1ccc(NC(=O)c2cc(S(=O)(=O)N3CCOCC3)cs2)cc1,"inconclusive [inhibitor, full curve, poor fit]"
4,CC(C)C(=O)C1=Cc2cc([N+](=O)[O-])ccc2OC1N1CCOCC1 (stereo not given),"inconclusive [inhibitor, partial curve, poor fit]"
5,CNC(=S)N(CCc1c(C)[nH]c2ccc(OC)cc12)Cc1ccco1,inactive
6,Cc1ccccc1Cn1c2ccccc2c2cnn(CC(=O)NCCc3ccc(Cl)cc3)c(=O)c21,inactive
7,O=C(/C=C/c1cc([N+](=O)[O-])ccc1OC(F)F)NCc1ccc(Cl)cc1,"inconclusive [inhibitor, full curve, poor fit]"
8,CCOC(=O)C1=C(c2ccccc2)NC(SCC(N)=O)=C(C#N)C1c1cccnc1 (stereo not given),"inconclusive [inhibitor, full curve, poor fit]"
9,OC1CCN(c2c3c(nc4cc(-c5ccc(Cl)cc5)nn24)CCC3)CC1,inactive
10,COc1ccc(-c2nc3c(c(=O)c4ccccc4n3C)c(=O)n2Cc2ccccc2)cc1,"inconclusive [inhibitor, partial curve, poor fit]"
11,Cc1ccc2nc(-c3ccccc3)oc(=O)c2c1,"inconclusive [inhibitor, full curve, poor fit]"
12,Cc1ccc2cc(C#N)c(N3CCCN(C(=O)c4cnccn4)CC3)nc2c1,inactive
13,O=C(NCc1ccco1)c1ccc2c(c1)N(Cc1cccc(Cl)c1)C(=O)c1ccccc1S2=O (stereo not given),inactive
14,Cc1ccc(-c2cc(C(F)F)nc(NCC3CCCO3)n2)cc1 (stereo not given),inactive
15,Cn1c(Cn2nnc3ccccc32)nnc1SCC(=O)N1CCc2ccccc21,"inconclusive [inhibitor, single point]"
16,CCn1ccc(C(=O)NC2C(=O)N3C(C(=O)O)=C(C)CSC23)n1 (stereo not given),inactive
17,COc1ccc(NC(=O)CN(C)C(=O)c2cccc(S(=O)(=O)Nc3ccc(F)cc3)c2)cc1,inactive
18,Cc1cc(C(=O)c2ccccc2)c(NC(=O)CN2CCOCC2)s1,"inconclusive [inhibitor, single point]"
19,CCOC(=O)/C(C#N)=C/c1c(N2CCN(c3ccccc3)CC2)nc2c(C)cccn2c1=O,"inconclusive [inhibitor, full curve, poor fit]"
20,COC(=O)CN1C(=O)[C@H]2[C@@H](/C=C/c3ccccc3)N3C(=O)CN(CC4CC4)C(=O)[C@@]3(Cc3ccccc3)[C@H]2C1=O,"inconclusive [inhibitor, partial curve, poor fit]"
21,O=C(CN1C(=O)CCOc2ccccc21)Nc1ccc(Cl)c(S(=O)(=O)N2CCOCC2)c1,"inconclusive [inhibitor, partial curve, poor fit]"
22,COc1cc(C(=O)NC2(C(F)(F)F)NC(=O)N(CCCc3ccccc3)C2=O)cc(OC)c1OC (stereo not given),"inconclusive [inhibitor, partial curve, poor fit]"
